Assay results taken from paper PMC4336329 (PLoS ONE, 2015).
In all, about 310,000 compounds went through this assay and about 2,200 (0.71%) showed an effect of 50% or more. Effects have a minus sign here. The list shows a part of the results.

What follows are compounds tested against human ether-à-go-go-related gene (hERG) potassium channel (human, UniProt Q12809) (assay: primary screen, population patch clamp on CHO cells stably expressing hERG).
Sequence of human ether-à-go-go-related gene (hERG) potassium channel (Q12809 whole entry, looked up): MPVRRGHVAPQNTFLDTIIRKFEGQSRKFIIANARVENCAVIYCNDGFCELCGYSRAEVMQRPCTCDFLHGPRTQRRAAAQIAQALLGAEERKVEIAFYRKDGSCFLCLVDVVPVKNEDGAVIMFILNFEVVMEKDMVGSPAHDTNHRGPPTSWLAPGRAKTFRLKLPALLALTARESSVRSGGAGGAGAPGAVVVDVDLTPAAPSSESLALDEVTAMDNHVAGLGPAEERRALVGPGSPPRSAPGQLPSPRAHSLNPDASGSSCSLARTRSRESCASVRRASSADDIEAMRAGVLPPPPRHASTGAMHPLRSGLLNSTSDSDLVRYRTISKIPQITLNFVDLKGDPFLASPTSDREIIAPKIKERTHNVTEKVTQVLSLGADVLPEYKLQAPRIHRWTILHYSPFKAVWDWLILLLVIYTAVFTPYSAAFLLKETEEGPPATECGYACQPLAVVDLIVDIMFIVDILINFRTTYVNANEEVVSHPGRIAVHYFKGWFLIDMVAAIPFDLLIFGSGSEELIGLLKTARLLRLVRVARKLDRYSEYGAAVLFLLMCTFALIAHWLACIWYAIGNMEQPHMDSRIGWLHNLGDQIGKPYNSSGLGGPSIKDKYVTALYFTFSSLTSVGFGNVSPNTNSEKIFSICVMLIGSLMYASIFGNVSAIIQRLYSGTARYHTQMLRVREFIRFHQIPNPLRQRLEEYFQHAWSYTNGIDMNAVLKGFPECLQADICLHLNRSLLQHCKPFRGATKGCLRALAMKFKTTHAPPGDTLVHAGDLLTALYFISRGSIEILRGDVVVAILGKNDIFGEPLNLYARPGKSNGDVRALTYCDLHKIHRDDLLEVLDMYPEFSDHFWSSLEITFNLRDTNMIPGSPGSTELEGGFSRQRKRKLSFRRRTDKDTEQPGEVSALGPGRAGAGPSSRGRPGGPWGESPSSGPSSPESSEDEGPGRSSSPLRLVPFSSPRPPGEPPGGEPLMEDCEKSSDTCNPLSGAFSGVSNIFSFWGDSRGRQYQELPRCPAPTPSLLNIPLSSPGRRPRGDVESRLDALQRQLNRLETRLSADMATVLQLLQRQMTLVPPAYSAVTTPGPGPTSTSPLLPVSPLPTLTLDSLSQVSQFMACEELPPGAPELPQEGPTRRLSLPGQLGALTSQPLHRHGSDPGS

Row | SMILES | hERG current change (%, negative = inhibition) at 1uM [%]
1 | Cc1ccc(/C=N/n2c(C)n[nH]c2=S)o1 | 7.01
2 | COc1ccc(C(=O)NCCC2=CCCCC2)cc1S(=O)(=O)N1CCOCC1 | -9.75
3 | COc1ccc(NC(=O)CSc2n[nH]c(=O)n2Cc2ccccc2)cc1Cl | 6.47
4 | O=C(c1ccc(C(=O)N2CCOCC2)s1)N1CCOCC1 | 13.5
5 | CCOC(=O)c1ccc(NC(=O)C(CC)CC)cc1 | 2.04
6 | O=C(COc1ccccc1)Nc1c(Cl)ccc2nsnc12 | 15.5
7 | CCOc1cc(N2CCOCC2)c(OCC)cc1NC(=O)CN1C(=O)N(C)C2(CCCCC2)C1=O | 3.37
8 | COc1cc(SC)ccc1C(=O)OCC(=O)N1CCCC1 | 8.95
9 | C/C(=N\NC(=O)CNC(=O)c1ccco1)c1ccc(Br)cc1 | 2.82
10 | Cc1ccc(-n2ncc(-c3nn[nH]n3)c2N)cc1 | 17.8
11 | O=C(Cc1cccc2ccccc12)Nc1ccc2oc(-c3ccccc3)nc2c1 | 10.1
12 | O=S(=O)(NCc1ccccc1Cl)c1ccc(-n2cccn2)cc1 | 12.7
13 | CCOC(=O)N1CCN(S(=O)(=O)N2CCCC(C(=O)NCc3ccc(OC)cc3)C2)CC1 (centres unmarked) | 14.4
14 | OCC[C@H]1C[C@@H](O)[C@H](O)[C@@]2(OCc3ccccc32)O1 | 9.4
15 | COc1ccc(NC(=O)[C@@H](NC(=O)c2ccccc2F)C(C)C)cc1S(=O)(=O)N1CCOCC1 | 2.17
16 | Cc1cc(C)cc(NC(=O)Nc2cnccn2)c1 | 6.81
17 | Cc1c(CCOC(=O)C23CC4(C)CC(C)(CC(C)(C4)C2)C3)sc[n+]1CC(=O)c1ccccc1.[Br-] | 5.87
18 | CCc1cc(C(=O)N2CCCC(C(=O)c3cccc(OC(C)C)c3)C2)n(C)n1 (centres unmarked) | 9.14
19 | Cc1ccc(CCSCC(=O)O)cn1 | 8.05
20 | CCC1CCCCN1C(=O)CCc1nnc(C2CCCCC2)o1 (centres unmarked) | 6.08
21 | O=C(Cc1ccc(S(=O)(=O)N2CCOCC2)s1)NCC1CCCCC1 | -1.83
22 | Cc1nc2ccsc2c(=O)n1-c1ccccc1Cl | 11.4
23 | CN(C)c1ccc(CNC(=O)CCNS(=O)(=O)c2cc(Br)cnc2N)cc1 | 14.5

Row | SMILES | hERG current change (%, negative = inhibition) at 1uM [%]
24 | O=C(O)C(F)(F)F.O=C1C(Cc2ccccc2)Nc2ncnc(N3CCOCC3)c2N1Cc1ccc(Cl)cc1 (centres unmarked) | 7.65
25 | CCCOc1cccc(C(=O)N(Cc2ccco2)C2CCS(=O)(=O)C2)c1 (centres unmarked) | 3.56
26 | CCOC(=O)N1CCN(C(=O)Cc2c(C(=O)O)n(C)c3ccccc23)CC1 | 11.5
27 | CC(=O)c1cccc(NC(=O)Cn2cc3c(n2)CCCC3)c1 | 6.93
28 | c1cncc(-c2nc(-c3ccco3)cs2)c1 | 5.44
29 | O=S(=O)(Nc1cccc(S(=O)(=O)N2CCCC2)c1)c1cccc(Br)c1 | -3.6
30 | CC(O)C(=O)N/N=C/c1cccc(Cl)c1Cl (centres unmarked) | 5.85
31 | Cc1cc(=O)oc(C)c1C(=O)Nc1ccc(N(C)C)cc1 | 12.4
32 | CCOc1cc(/C=N/NC(=O)c2ccncc2)ccc1OC(=O)c1ccccc1 | 11.3
33 | COc1ccc(S(=O)(=O)N(CC(=O)N2CCN(c3ccccc3OC)CC2)c2ccccc2)cc1 | 2.74
34 | O=C1CNC(=O)/C(=C\c2ccc(F)cc2)N1 | 13.7
35 | CCN1C(=NCC(C)C)N[C@@H](CCc2ccccc2)[C@H](C(=O)NCC(C)C)[C@H]1C | -8.26
36 | CC(C)NC(=O)CN1CCN(Cc2nc(-c3cccs3)no2)CC1 | 14.1
37 | O=C(O)CN1C(=O)C2C3C=CC(C3)C2C1=O (centres unmarked) | 7.44
38 | Cn1c(=O)c2sccc2n2c(CCCC(=O)NC3CCN(Cc4ccccc4)CC3)nnc12 | 13.2
39 | Cc1c(C(=O)O)sc2c1c(=O)n(Cc1ccccc1)c(=O)n2C | 17.3
40 | CC(=O)Oc1ccccc1/C=C/c1ccc2ccccc2[n+]1C.[I-] | 9.22
41 | O=C(c1cc(-c2ccc(Br)cc2)nc2ccccc12)N1CCC1 | 11.1
42 | CN1C(=O)CC(C(=O)O)SC1=Nc1cc(Cl)c(O)c(Cl)c1 (centres unmarked) | 5.3
43 | CCOCC(O)CNc1ccccc1 (centres unmarked) | 16.2
44 | CC(OC(=O)CCc1nc2ccccc2c(=O)[nH]1)C(=O)NCc1ccc2c(c1)OCO2 (centres unmarked) | 10.1
45 | CC(=O)c1ccccc1NC(=O)COC(=O)c1cc(C)oc1C | -2.43
46 | O=C(CC1S/C(=N/N=C/C=C/c2ccccc2)NC1=O)Nc1ccc(C(=O)O)cc1 (centres unmarked) | 8.7

Row | SMILES | hERG current change (%, negative = inhibition) at 1uM [%]
47 | COc1ccc(CCNC(=O)c2ccc(NC(=O)CC3SC(N4CCCC4)=NC3=O)cc2)cc1 (centres unmarked) | 10.5
48 | O=C(COc1ccc(Cl)cc1Cl)N(C1CCCCC1)C1CCS(=O)(=O)C1 (centres unmarked) | 4.95
49 | COc1ccc([C@]2(C(C)C)ON(c3ccccc3C(F)(F)F)C2=O)cc1 | 14.1
50 | CC(C)(C)NC(=O)C(c1ccc(F)cc1)N(Cc1ccco1)C(=O)Cn1nnc(-c2cccs2)n1 (centres unmarked) | 13.5
51 | O=C1CCC2CCCCC2(O)O1 (centres unmarked) | 9.04
52 | O=C(Cn1cc2c(n1)CCCCC2)NCc1ccccc1 | -6.65
53 | COC(=O)c1sccc1NC(=O)Cc1ccc(OC)cc1 | -0.194
54 | CC1=C(C(=O)OCCOc2ccccc2)C(c2ccsc2)NC(=O)N1C (centres unmarked) | 11.6
55 | Cn1c(SCC(=O)N2CCOCC2)nc(O)cc1=O | 11.9
56 | Cc1ccc(C)n1-c1ccc(C(=O)NCC2CCCO2)cc1 (centres unmarked) | 5.92
57 | COc1cccc(CCNC(=O)C2CCC(=O)N(Cc3cccc(OC)c3)C2)c1 (centres unmarked) | 7.27
58 | Cn1c(N)c(C(=O)NCc2ccccc2Cl)sc1=S | 16.9
59 | O=C1CC(NCc2ccncc2)C(=O)N1c1ccc(Cl)cc1 (centres unmarked) | 14.3
60 | S=C(c1ccc(-c2ccccc2)o1)N1CCCCC1 | 15.6
61 | CCn1ncc(Br)c1C(=O)Nc1cc(C)cc(C)c1 | 10.9
62 | Cc1[nH]c2ccc(F)cc2c(=O)c1SC(F)(F)C(F)C(F)(F)F (centres unmarked) | 6.01
63 | COc1ccc(C(=O)N2CCC(C(=O)Nc3ccc(C)cc3)CC2)cc1 | -31.9
64 | O=C1CCC(C(=O)O)N1 (centres unmarked) | 13
65 | CCOC(=O)N1CCN(CC(=O)Nc2ccc(C)c(Br)c2)CC1.Cl | 3.62
66 | COc1ccc2cc(-c3ccccc3F)ncc2c1 | 3.66
67 | COc1ccc(NC(=O)N2CCCC2C(=O)NC23CC4CC(CC(C4)C2)C3)cc1 (centres unmarked) | 9.75
68 | CN(C)S(=O)(=O)c1cccc(NC(=S)Nc2ccc(Cl)cc2Cl)c1 | 15.3
69 | CCOC(=O)CSc1cc(C)nc(N)n1 | -4.82

Row | SMILES | hERG current change (%, negative = inhibition) at 1uM [%]
70 | O=C(CCC1CCCN(Cc2cccc3c2OCO3)C1)NCc1ccc(F)c(F)c1 (centres unmarked) | -31.1
71 | CCOC(=O)CSc1cc(C(F)(F)F)nc(-c2ccccn2)n1 | -7.97
72 | Cc1c(Br)c([N+](=O)[O-])nn1CCCC(=O)Nc1c(C)n(C)n(-c2ccccc2)c1=O | 13.4
73 | COC(=O)c1cc(NC(=O)c2cc3ccccc3o2)cc(C(=O)OC)c1 | 13.4
74 | O=C(NCCCc1ccc(F)cc1)C1CCC(=O)N(CC2CCCCC2)C1 (centres unmarked) | 4.59
75 | COCC(=O)OCC(=O)Nc1ccc(Cl)cc1[N+](=O)[O-] | 14.3
76 | Cc1ccc(C(=O)CSc2nnc(-c3cccs3)n2C)o1 | 7.9
77 | CCOC(=O)C1CCN(CC(O)COCc2ccc3c(c2)OCO3)CC1.Cl (centres unmarked) | 1.96
78 | Cc1cc(NC(=O)Cc2cc(F)cc(F)c2)no1 | 19.4
79 | COc1cc(OC)c(-c2sc(Nc3ccccc3)n[n+]2-c2ccc(F)cc2)cc1OC.[Cl-] | 8.76
80 | OCC[C@@H]1C[C@@H](O)[C@H](O)[C@]2(CCc3ccccc3CO2)O1 | 17.4
81 | C[C@H](NS(=O)(=O)c1ccccc1F)C(=O)OCC(=O)N1CCc2ccccc21 | 18.3
82 | Clc1nnc(N2CCCCC2)c2ccccc12 | 2.42
83 | COc1ccc(S(=O)(=O)N2CCN3CCCC3C2)cc1 (centres unmarked) | 17.3
84 | O=C(N/C(=C\c1ccc(Br)cc1)C(=O)N1CCOCC1)c1ccc(Br)o1 | -15.3
85 | CCN(c1cccc(C)c1)S(=O)(=O)c1cccc2nsnc12 | 14.4
86 | Cc1ccc2c(Cl)cc(Cl)c(OCC(=O)N3CCOCC3)c2n1 | 3.29
87 | CCOC(=O)c1cc(-c2ccccc2)nn1CCC#N | 4.87
88 | CC(C)(C)C(=O)NC(=S)NNC(=O)c1ccncc1 | 16.2
89 | CCN(CC)c1ccc(S(=O)(=O)N2CCCCC2)cc1NC(=O)CN1C(=O)NC2(CCCC2)C1=O | 7.63
90 | CCN(CC)S(=O)(=O)c1ccc(NC(=O)c2nc3nc(C)cc(C)n3n2)cc1 | 6.45
91 | Cc1ccc2nc(NC(=O)C3=NN(c4ccccc4)C(=O)CC3)sc2c1 | 16.7
92 | Cc1ccc(CC(=O)Nc2cccnc2)cc1 | 14.2
